# Results published in article PMC4336329 (PLoS ONE, 2015).
# Screen size: about 310,000 compounds; about 2,200 (0.71%) showed an effect of 50% or more. Effects have a minus sign here. The list shows a part of the results.
# Biological target: human ether-à-go-go-related gene (hERG) potassium channel (human, UniProt Q12809)
# Experiment: primary screen, population patch clamp on CHO cells stably expressing hERG
# human ether-à-go-go-related gene (hERG) potassium channel, sequence (Q12809 whole entry, looked up): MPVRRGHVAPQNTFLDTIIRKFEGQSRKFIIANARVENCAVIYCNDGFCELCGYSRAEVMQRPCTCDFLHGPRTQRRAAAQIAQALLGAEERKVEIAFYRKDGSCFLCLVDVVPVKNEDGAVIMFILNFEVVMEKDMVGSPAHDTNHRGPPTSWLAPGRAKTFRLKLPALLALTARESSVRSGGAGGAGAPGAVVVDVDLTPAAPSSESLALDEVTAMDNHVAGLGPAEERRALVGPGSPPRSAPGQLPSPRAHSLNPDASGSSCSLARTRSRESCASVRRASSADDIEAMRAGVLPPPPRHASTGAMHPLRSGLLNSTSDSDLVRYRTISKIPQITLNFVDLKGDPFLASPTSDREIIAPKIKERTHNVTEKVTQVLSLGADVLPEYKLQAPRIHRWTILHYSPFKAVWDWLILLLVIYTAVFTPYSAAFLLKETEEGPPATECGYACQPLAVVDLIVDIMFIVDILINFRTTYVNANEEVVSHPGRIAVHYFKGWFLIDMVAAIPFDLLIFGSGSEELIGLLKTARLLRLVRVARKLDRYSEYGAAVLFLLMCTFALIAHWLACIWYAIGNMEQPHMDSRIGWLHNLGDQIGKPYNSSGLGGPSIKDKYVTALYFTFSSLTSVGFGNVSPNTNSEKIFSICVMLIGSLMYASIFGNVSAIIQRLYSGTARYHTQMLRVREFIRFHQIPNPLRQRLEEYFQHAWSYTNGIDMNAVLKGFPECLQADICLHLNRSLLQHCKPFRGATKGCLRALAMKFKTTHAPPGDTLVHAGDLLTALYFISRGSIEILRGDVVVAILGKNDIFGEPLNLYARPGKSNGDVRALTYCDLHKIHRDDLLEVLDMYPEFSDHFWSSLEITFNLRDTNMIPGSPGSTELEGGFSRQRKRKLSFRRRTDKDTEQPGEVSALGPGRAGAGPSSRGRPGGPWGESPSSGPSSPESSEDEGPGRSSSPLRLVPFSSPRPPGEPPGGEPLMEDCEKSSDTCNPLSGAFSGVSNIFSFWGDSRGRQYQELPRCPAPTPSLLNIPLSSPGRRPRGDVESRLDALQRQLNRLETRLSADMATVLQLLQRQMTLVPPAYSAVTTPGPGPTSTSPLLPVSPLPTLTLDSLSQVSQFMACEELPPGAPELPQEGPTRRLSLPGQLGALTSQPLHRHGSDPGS
row,SMILES,"hERG current change (%, negative = inhibition) at 1uM [%]"
1,COc1ccc2cc(/C(C)=N/NC(=O)c3cc(-c4cccnc4)nc4ccccc34)ccc2c1,4.54
2,N#CN(Cc1ccccc1)Cc1ccccc1,-13.1
3,Fc1ccc(-c2csc(N3CCC(c4ccccc4)C3)n2)cc1 (stereo not shown),-8.87
4,N#CCC(=O)Nc1ccc(C(=O)NCCc2c[nH]c3ccccc23)cc1,14.9
5,CC(=O)c1ccc(NC(=S)NCc2ccc(Cl)cc2Cl)cc1,12.6
6,CC1CN(S(=O)(=O)c2cccc(C(=O)Nc3ccccc3N3CCCCC3)c2)CC(C)O1 (stereo not shown),14
7,Cc1ccc(C)c(OC(=O)CN2C(=O)c3ccccc3C2=O)c1,14.7
8,O=C(CSc1nc2c(c(C(F)(F)F)n1)CCc1ccccc1-2)NCc1ccc(F)cc1,17.3
9,CCCCC(CCC(=O)O)(C(=O)OCC)c1csc(N)n1 (stereo not shown),8.87
10,S=c1[nH]nc(-c2ccco2)n1Cc1ccccc1,11.7
11,COCc1c(C(=O)N/N=C(/C)c2ccccc2)nnn1-c1nonc1N,9
12,Cc1ccc2c(c1)sc1nc(=O)n(-c3cccc(Cl)c3)c(=O)n12,3.35
13,CN(C)C(CNc1ncnc2sccc12)c1cccs1 (stereo not shown),4.86
14,O=c1[nH][nH]cc1C=NCc1cccnc1,6.48
15,CCOc1cc(C)cc2oc(=O)cc(-c3ccccc3)c12,8.74
16,O=C(CN1C(=O)NC2(CCCCCC2)C1=O)c1ccc(F)cc1,-2.49
17,CCCOc1ccc(S(=O)(=O)NNC(=O)c2cc3ccccc3o2)cc1,12
18,Cc1ccc2nc(NCCc3ccc(Cl)cc3)c3nncn3c2c1,9.2
19,CC(C)c1nc2ccc(Br)cn2c1NC1CCCC1,13.7
20,O=C(NC1CCCCC1)c1noc2c1CCCCC2,-3.07

row,SMILES,"hERG current change (%, negative = inhibition) at 1uM [%]"
1,CCNS(=O)(=O)c1ccc(CCC(=O)NCc2ccncc2)cc1,7.13
2,Cc1ccc(S(=O)(=O)N2CC(=O)NC(=O)C2)cc1,7.99
3,O=C(COc1ccc(/C=N/NS(=O)(=O)c2ccccc2)cc1)Nc1ccc(F)cc1,-6.19
4,CCc1ccc(C(=O)N/N=C(\C)c2ccncc2)s1,2.94
5,COc1ccccc1NC(=O)CN1C(=O)CSC(C)C1=O (stereo not shown),21
6,CCC(=O)N1CCN(c2ccc(Cl)cc2NC(=O)c2ccc3c(c2)OCCO3)CC1,-19.3
7,CN(Cc1ccccc1Cl)C(=O)c1cc2ccccc2o1,16.4
8,CCOC(=O)/C=C1\SCC(=O)N1CC(=O)Nc1ccc2c(c1)CCC2,10.7
9,CN(c1ccccc1)S(=O)(=O)c1cccc(C(=O)NCc2ccccc2CN2CCCC2)c1,-33.8
10,O=c1[nH]c2ccc(Cl)cc2c(-c2ccccc2)c1N1CCOCC1,7.57
11,O=c1[nH]cc(COCC(F)(F)C(F)(F)C(F)(F)F)c(=O)[nH]1,10.7
12,CCNC(=O)NC(=O)CSc1ccc(S(=O)(=O)N(C)C2CCCCC2)cn1,-12.5
13,CN(C)S(=O)(=O)c1ccc(C(=O)Nc2ccc3ncccc3c2)cc1,21
14,c1ccc(CCc2nn3c(-c4ccncc4)nnc3s2)cc1,-9.59
15,Cc1ccc(C(=O)C2=C(O)C(=O)N(Cc3ccco3)C2c2cccc(Cl)c2)o1 (stereo not shown),15
16,Cn1cccc1/C=N/NC(=O)Cc1ccccc1,12.4
17,O=C(COC(=O)/C=C/c1ccc(OC(F)F)cc1)NC1CCCC1,11.8
18,Nc1cc(=O)[nH]c(SCC(=O)NC2CCCc3ccccc32)n1 (stereo not shown),11.8
19,CC(O)CNCCNCc1c(OCc2ccccc2)ccc2ccccc12.Cl (stereo not shown),-3.64
20,Cc1nc(SCC(=O)Nc2c(C)n(C)n(-c3ccccc3)c2=O)[nH]c(=O)c1Cc1ccccc1,11.5

row,SMILES,"hERG current change (%, negative = inhibition) at 1uM [%]"
1,COc1ccccc1C(CNC(=O)c1ccc(NS(=O)(=O)c2ccc3c(c2)OCCO3)cc1)N(C)C (stereo not shown),-2.03
2,C/C=C(\C)c1nnc(NC(=O)c2ccco2)s1,5.16
3,Cc1nnc(SCC(=O)Nc2cccc(S(N)(=O)=O)c2)n1-c1ccccc1,12
4,O=C(O)c1cc(-c2ccc(/C=N/N3C(=O)C4C5C=CC(CC5)C4C3=O)o2)ccc1Cl (stereo not shown),6.23
5,N#CC1(NC(=O)CSc2nc3ncc(Cl)cc3[nH]2)CCCCC1,15.1
6,O=C(c1ccc2c(c1)OCO2)N1CCN(c2ccc(Cl)cc2)CC1,-0.904
7,C=CCN=C1SC(C)(C)C(=O)N1S(=O)(=O)c1ccc(C)cc1,7.75
8,O=C(/C=C/c1ccc(Cl)cc1)N1CCN(c2c(Cl)cccc2[N+](=O)[O-])CC1,12.1
9,O=C(NCCN1CCc2ccccc2C1)Nc1ccc([N+](=O)[O-])cc1,-26.4
10,COc1ccc(N2C(=O)c3ccccc3NC2c2ccc(OC)c(CN3CCOCC3)c2)cc1 (stereo not shown),1.94
11,COc1cccc(NC(=O)c2ccccc2-c2ccccc2)c1,11.6
12,CC(C)OCCCNC(=O)CN1C(=O)c2cccc3cccc1c23,9.4
13,COC(=O)c1ccccc1NC(=O)C1CCN(C(=O)Cc2ccccc2)CC1,-11.2
14,COc1ccc(NC(=O)c2ccccn2)cc1OC,8.05
15,COc1ccc(Cl)cc1NC(=O)NN1CCN(C)CC1,-7.68
16,CC1=C/C(=N\NC(=S)NCCc2ccccc2)CC(C)(C)C1,12.3
17,CCCn1c(=O)c2ccccc2n2c(Sc3nnnn3-c3ccccc3)nnc12,-5.71
18,CC(C)(C)NC(=O)Cn1c(SCC(=O)NC2CCCC2)nc2ccccc21,4.2
